Measurements reported in PubChem BioAssay AID624417 (National Center for Advancing Translational Sciences (NCATS), 2012).
Out of some 410,000 compounds screened, about 6,400 (1.6%) were called active. The shares of active, inactive and inconclusive entries below differ from those in the screen. Calls come from the whole dose curve; as a rule, active = well fitted inhibition curve with a large enough effect; inconclusive = small, poorly fitted or top-dose-only effect; inactive = no such curve, though single readings can be large or run the other way. No potency is given beside an inconclusive call; the fits are too rough.

Biological target: Glucagon-like peptide 1 receptor (Homo sapiens) (UniProt P43220)
Experiment: qHTS of GLP-1 Receptor Inverse Agonists (Inhibition Mode); note: nearly all actives have a fitted effect of over 55% in size
Conditions: HEK293 GLP-1R CRE-luciferase, luminescence, 24 h, GLP-1R form is constitutively active; series mostly up to 38.3 µM
How it was run: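 HEK293 cells stably co-expressing a cAMP-responsive luciferase reporter and constitutively active GLP-1R were seeded, incubated 12 h, then exposed to compounds for 24 h at 37 C. Luminescence was read 12 min after detection reagent; inverse agonists lower signal.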
Potency is the fitted concentration of half-maximal effect; tags give direction and shape of the fitted curve.

Chain of UniProt P43220 (P43220 whole entry, looked up): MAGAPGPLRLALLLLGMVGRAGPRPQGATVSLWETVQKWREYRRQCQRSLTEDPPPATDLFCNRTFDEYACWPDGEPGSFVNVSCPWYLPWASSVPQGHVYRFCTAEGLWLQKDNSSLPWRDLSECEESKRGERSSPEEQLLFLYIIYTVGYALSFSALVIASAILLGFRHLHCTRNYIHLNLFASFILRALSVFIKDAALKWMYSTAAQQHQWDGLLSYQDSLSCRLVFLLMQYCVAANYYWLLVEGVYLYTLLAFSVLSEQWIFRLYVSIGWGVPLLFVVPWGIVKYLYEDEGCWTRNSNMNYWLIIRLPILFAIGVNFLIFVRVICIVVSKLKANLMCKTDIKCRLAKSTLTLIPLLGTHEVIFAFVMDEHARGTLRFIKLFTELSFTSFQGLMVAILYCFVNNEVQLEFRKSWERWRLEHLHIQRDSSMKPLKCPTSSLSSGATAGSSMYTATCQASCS

SMILES | Potency
COc1cccc(C(=O)NCC(=O)N2CCN(c3ccc(C(F)(F)F)cn3)CC2)c1 | inactive
COc1ccc(Br)cc1CNC(=O)CN1C(=O)CCCc2ccccc21 | inconclusive [inhibitor, partial curve, poor fit]
C#CC(C)(CC)NC(=O)Cn1nnc(-c2ccc(OCc3ccccc3Cl)cc2)n1 (stereo unspecified) | inconclusive [inhibitor, partial curve, poor fit]
CC(C)(C)c1ccc(C(=O)Nc2nc3nc(-c4ccccc4)cc(=O)n3[nH]2)cc1 | inactive
CCc1ccc(OCC(=O)N/N=C(\C)c2ccccc2OC(F)F)cc1 | inconclusive [inhibitor, partial curve, poor fit]
CC(C)(C)[C@@H]1C=C(C(=O)Nc2ccccc2)O[C@H](OCc2ccc(CO)cc2)C1 | inconclusive [inhibitor, single point]
O=[N+]([O-])c1ccc(/C=N/n2c(-c3cccnc3)n[nH]c2=S)cc1 | inactive
O=C(c1ccccc1Oc1ccccc1)N1CCN(c2ccc(F)cc2)CC1 | inconclusive [inhibitor, single point]
COc1cccc(NC(c2nnc(-c3ccccc3)o2)c2ccc(F)cc2Cl)c1 (stereo unspecified) | inconclusive [inhibitor, partial curve, poor fit]
Cc1cc(=O)oc2cc(OCc3ccc(C(=O)N4CCN(c5ccccc5)CC4)cc3)ccc12 | inconclusive [inhibitor, partial curve, poor fit]
Cc1ccc(N=Nc2c(C)[nH]n(C(N)=S)c2=O)cc1 | inconclusive [inhibitor, full curve, poor fit]
COc1ccc2cc3cc(C(=O)N4CCCCC4C)oc3nc2c1 (stereo unspecified) | inconclusive [inhibitor, single point]
O=C1C(Cc2ccccc2)Nc2ncnc(N3CCc4ccccc4C3)c2N1Cc1ccccc1 (stereo unspecified) | inconclusive [inhibitor, single point]
CC(=O)Oc1ccc2ccccc2c1C(NC(=O)C(C)C)c1cccc([N+](=O)[O-])c1 (stereo unspecified) | inconclusive [inhibitor, partial curve, poor fit]
CNc1cncc(-c2ccc(CN3CCOCC3)cc2)n1 | inconclusive [inhibitor, single point]
Cc1cccc(NS(=O)(=O)c2cccc(C(=O)N3CCCC3)c2)c1 | inconclusive [inhibitor, single point]
Cc1cc(Cl)cc(Br)c1OCCCNCC(C)O (stereo unspecified) | active: 3.98 µM
Cc1ccccc1Nc1nnc(-c2ccc(C)c(S(=O)(=O)N3CCN(C)CC3)c2)c2ccccc12 | inconclusive [inhibitor, single point]
O=C(C(Cc1ccccc1)N1C(=O)c2ccccc2C1=O)N1c2ccccc2CCc2ccccc21 (stereo unspecified) | active: 12.6 µM
OC(c1ccccc1)(c1ccccc1)c1nccn1-c1ccccc1 | inconclusive [inhibitor, partial curve, poor fit]
CCc1cc2ccc(C)cc2nc1SCC(=O)Nc1cc(OC)c(OC)cc1C(=O)O | inconclusive [inhibitor, single point]

SMILES | Potency
Cc1ccc(CC2(C)C(=O)Nc3c(Cl)cccc32)cc1 (stereo unspecified) | inconclusive [inhibitor, single point]
O=C(Cc1ccccc1)Nc1ccc(NC(=O)c2cccs2)cc1Cl | inactive
Oc1cc(-c2ccccc2)c2ccccc2c1 | inconclusive [inhibitor, single point]
COc1ccc(C(C(=O)Nc2ccc(C(C)C)cc2)N(C)C(=O)Cc2cccs2)cc1 (stereo unspecified) | active: 3.16 µM
Cc1nc(N2CCCC2)c2c(C(=O)N3CCN(c4cc(Cl)ccc4C)CC3)c(C)oc2n1 | inconclusive [inhibitor, single point]
Cc1ccc(C(=O)c2cn(Cc3ccccc3)c3nc(C)ccc3c2=O)cc1 | inconclusive [inhibitor, single point]
C[n+]1cn(CC(O)COCc2ccccc2)c2ccccc21 (stereo unspecified) | inactive
O=C(Nc1ccccc1Oc1cccnc1)C1CCCN(Cc2ccc(F)cc2)C1 (stereo unspecified) | inconclusive [inhibitor, partial curve, poor fit]
CC1(C)OC(=O)N(c2ccccn2)C1(C)O (stereo unspecified) | inactive
COc1cc(/C=N/N2CCN(Cc3ccc(Cl)cc3)CC2)cc(Br)c1O | inconclusive [inhibitor, single point]
CCCC(=O)N1CCN(c2nc3ccc(F)cc3s2)CC1 | inconclusive [inhibitor, single point]
COc1cccc(/C(N)=N/OC(=O)Cc2ccccc2[N+](=O)[O-])c1 | inconclusive [inhibitor, partial curve, poor fit]
Cc1cccc(OCCCC(=O)Nc2nccs2)c1C | inactive
O=C(Nc1cccc(Cl)c1)OCCOCCOC(=O)Nc1cccc(Cl)c1 | inconclusive [inhibitor, partial curve, poor fit]
O=C1/C(=C/c2cccs2)SC(=S)N1CCC(=O)N1CCCCC1CCO (stereo unspecified) | inconclusive [inhibitor, partial curve, poor fit]
Cc1ccc2nc(-c3ccccc3)cc(C(=O)N3CC(C)OC(C)C3)c2c1 (stereo unspecified) | inconclusive [inhibitor, single point]
CCCN(CC(=O)Nc1cc(Cl)ccc1Cl)C(=O)/C=C/c1cc(OC)ccc1OC | inconclusive [inhibitor, single point]
COc1cccc(N2CCN(C(=O)CCc3nnc4ccc(N5CCCC5)nn34)CC2)c1 | inactive
COc1ccccc1NS(=O)(=O)c1cc(NC(=O)c2ccc3c(c2)OCCO3)ccc1C | inconclusive [inhibitor, partial curve, poor fit]
O=C(O)/C=C/C(=O)Nc1ccc(Cc2ccc(NC(=O)/C=C/C(=O)O)cc2)cc1 | inconclusive [inhibitor, full curve, poor fit]
